The results in this text go back to the RNAGym collection of RNA variant scans (doi:10.7554/elife.90254).

B1: LINE1-mini (parent)
chain: GGCAGAGCUCAACACAGCGUGGCAAAGUGGCUGUGGCUAGACUGCC

The source gives no read counts; variants with many changes may rest on few reads.

The variants in the series derive from B1. Briefly: self-cleavage, relative activity (ratio to wild type); higher = more cleavage; in vitro, sequencing; the parent is a self-cleaving ribozyme.
Take AGCAGAGCUCGACACAACGUGGCAAAGUGGCAGUCGCUAGACUGCC: the self-cleavage stood at 0.
The same measure for AGUAUAGCUCACCACAGCGUGGCAAAGUGGCUGUGGCUAGACUGCA: 0.12.
As to AGCGGAGCUCAACACAGCGUGGCAAAGUGGCUUUGGCUAUACUGCC, the self-cleavage turned out to be 0.04.
Turning to AGCAGAGCUCAACGUAGCUUGGCAAUGUGGCUGUGGCUAGACUGCA, the self-cleavage is 0.04.
The value for AGCAGAGAUCAACACAGCGUGGCAAAGUGGCGGUGGCUAGACUGCC was 0.52; that for AGCAGAGUUUAACACAGCGUGGCAAAGUGGCUGUGCCUAGACUGCC was 0.42.
The value for AGCAGAGCUCAACACCGCGUGGCAAGGUGGCUGUGGCUAGACUGCA was 0.06; that for AGCAGAGCUCAGCACAGCGUGGCAGAGUGGCUGUGGCUAGACUGCC was 0.04.
With AGUAGAGCUCAACAUAGCGUGACAAAGCGGCUGUGGGUAGACUGCC, the self-cleavage amounted to 0.25.
The value for AGCAGCGCGCAACACAGCGUGGCAAAGUGGCUGUGGCUAGACUCCA was 0.01; that for AGCAGAGCUCAACCCAGCGGGGCAAAGUGGCUGUGGCUAGACUGCU was 0.09; that for AGCCGAGCUCAACACACGGUGGCAAAGUGGCUGUGGCUAGACUGCC was 0.09.
With AGCUGAGCUCAACCCAGCGUGGCCAAGUGGCUGUGGGCAGACUGCC, the self-cleavage turned out to be 0.01.
The value for AGCAGAGCUCAACACUGCGUGGCAGAGUGGGUGUGGCUAGACUGCC was 0; that for AGAAGACCUGAACAUAGCGUGGCUAAGGGGCUGUGGCUAGACUGCC was 0.25.
The value for AGCAGAGCUCACCACAUCGUGGCAAACUGGCUGUGGCUAGACUGCC was 0.04; that for AGCAGAGCUCAACACAGCGUGGCAGAAUGGCUGUGGCUAGACUGCC was 0.06; that for AGCAGAGCUCAACACGGAGUGGCACAGUGGCUGUGGCUAGACUGCC was 0.03.
The same measure for AGCAGAGCUCACCACAGCGUGGCAAAGUGACUAUGGCUAGACUGCC: 0.02; for AGCAGAGAUCAACACCGCGUGGCAAAGUGUCCGUGGCUAGAGUGCC: 0.69.
As to AGCAGAGAUCCACACAGCGUGGCAAAAUGGCCGUGUCUAGACUGCC, the self-cleavage was 0.04.
Take AGCAGAGCUCAACACAGCGUGGCAAAGUGGCUGUGGCUAGCAUGGC: the self-cleavage was 0.03.
The same measure for AGCAGAGCUAGACCCAGCGUGGCAAAGUGGCUGUGACUAGACUUCC: 0.02.
The same measure for AGAACAGCUCAACACAGCGUGUCAAAGUGGCUGUGGCUAGACUCCC: 0.74; for AGCAGAGCUCAACACUGCGUGGUAAAGUGGCUGUGGCUAGACUGCC: 0.25.
The same measure for AGAAGAGCUCAACACAGCGUGGUAAAGUGGCUGAGUCUAGCCUGCC: 1.36; for AGCAGAGCUCAACACAGCGUGGCAAAGUGGCUGUGGCUAGUCUGGC: 0.15; for AGCAGCGGUCAACACAGCGUGGCCAAGUGGCUGUGGCUAGCCUGCC: 0.05.
AGCAGAGCUCACCACAGAGUGGCAAAGUGGCUGUGGAUAGACUGCG: the self-cleavage amounted to 0.07.
The same measure for AGCAGAGGUCAUCACAGCGUGGCAAAGUGGCUGUGGAUAGACUGUC: 0.07; for AGCAGUGCUCAGCACCGCGUGGCAAAGUGGCUGUGGCUAGACUGCC: 0.05; for AGCAGAGCUCAACUCUGCGUGGCAAAGUGGCUGUGGAUAGACUGCC: 0.09.
AGCAGAGCUCAACACAGCGUGGCAUAGUUGCUGUGGCUAGACUGCG: the self-cleavage turned out to be 0.36.
On to AGCAGAGCUCAUCACAGCGUGGCAAACUGGCUGUGGAUAGACUGAC, for which the self-cleavage stood at 0.02.
The value for AGCAGAGCUAAACACAGCGUGGCAAAGUGGCUGUGGCUAGACUCCC was 0.06; that for AGCAGAGCUCAACGCAUUGUGGCAAAGUGGCUGUGGCUGGACUGCC was 0.02.
Regarding AGGAGAGCUCAACUCAGCGUGGCGAAGUGGCUGUGGCUAGACUGCC, the self-cleavage came to 0.26.
The value for AGCAGAGCUCAACUCAGUGUUGCAAAGUGGCUGUGGCUAGACUGCC was 0.14; that for AGGAGAGCUCAGCACAGCGUGGCAAAGUGGCUGUGGCUAGACUGCC was 0.16; that for AGCAGAGCUCAACGCAGCGUGGCUAUGUGGCUGUGGCUAGACUGCC was 0.21.
The same measure for AGCAGAGCUCAACACAGCGUGGCGAAGUGGCUGAGGGUAGACUGCC: 0.03.
The value for AGUAAGGCUCAACACAGCGUGGCAAAGUGGCUGUGGCUAGACUGCC was 0.49; that for AGCAGAGCUCAACACAGCGUGGCUAAGUGGCUGUGGCUACACUGCC was 0.09.
Take AGCUGCGCGCACCACAGCGUGGCAAAGUGGCUGUGGCUAGGCUGCC: the self-cleavage was determined as 0.18.
The value for AGGAGAGCUAAACACAGCGUGGAAAAGUGGCUGUGGUUAGAAUGCC was 0.
The same measure for AGCAGAGCUCAACACAGCGUGGCAAGCUGGCUGUUGCUAUACUGCC: 0.13.
The value for AGCAGAGCUAAACACAGCCUGGCAAAGUAGCAGUGGCUAGUCUGAC was 0.01; that for AGCUGAGCUCAACCCAGCGUGGCAAACUGGCUGUGGCUAGCCUGCC was 0.05.
As to AGCAGAGCUCAACACAGCGUGGCAAUGUGGUUGUGGCUAGAGUGCC, the self-cleavage came to 0.04.
Consider AGCAGAGUUCAACACAGCGUGGCAAACUGGCUGUGGAUAGACUGCC, for which the self-cleavage stood at 0.17.
In the case of AGCAGUGCUCAACACAGCGUGGCAAAGUGGCAGUGGCUAGACCGCC, the self-cleavage was found to be 0.04.
The value for AGCCGAGCUAAACCCAGCGUGGCAAAGUGGCUGUGGCUAGACUGCC was 0.03; that for AGCAGAGCUCAACGCAGCGUGGCAAAGUGGCUGUGGCUUGACUGCC was 0.08.
The value for AGCAGAGUUCAACACAGCGUGGCAAAGAGGCUGUGGCUAGACUGCC was 1.1; that for AGCAGAGCUCAUCACAGCGUGGCAAAGUGGCUGUGGCUAGACUCCC was 0.04; that for AGCAGAGCUAAACACAGCGUCGCAAAGUGGCUGUGGCUAGACUGUC was 0.02.
The value for AGCAGAGUUCAAGACAGCGUGGCAAAGUGGCUGUGGCUAGACUGCC was 0.57; that for AGCAGAGCUCAACGCAGCGUGGCACUGUGGCGGUGGCUAGACUUCC was 0.06; that for AGCAGAGCUCAACCCAGCGUGGCAAAGUGGCUGUAGCUAGACUGCC was 0.01.
For AGCAGAGUUCAACACAGAGUGCCAAAGUAGCUGUGUCUCGACUGCC, the self-cleavage was found to be 0.91.
The value for AGCAGAGUUCAUCACAGCGUGGCAAAGUGGCUGUGGCUAGACUGCG was 0.67.
The same measure for AGCAGAGCUCCACACAGUGUGGCAAAGUAGCUGUGGCUAGACUGCC: 0.03; for AGCAGGGCUCAACGCAGCGUGGCAAAGGGGCUGUGGCUAGAGUGCC: 0.01; for AGCAGAGCUCCACACAGCGUGGGAAAGUGGCUGUGGCUAGACUGCC: 0.02.
The same measure for AGCAGAGCUCAUCACAGCGUUGCAAAGUGGCUGUGGCCAGACUGUC: 0.16; for AGCCGAGCUCAAGACAGCGUGGCAAAGUGGCUGUGGCUAUCCUGCC: 0.06.
Turning to AGUAGAGCUCAACACAGCGUGGCAUAGUAGCUGCGGCUAGACUGCC, the self-cleavage turned out to be 0.22.
The same measure for AGCAGAGCUAAAGACAGCGUGGCAAAGUGGUUUUGUCUAGACUGCC: 0.04.
The same measure for AGCCGAGAUCAACACAGCGUGGCAAAGUGGCGGUGGCUAUACCGCA: 0.12.
For AGCAGUGCUCAACACAGCGUGGCAAAGUGGCAGUUACUAGACUGCC, the self-cleavage was 0.06.
The value for AGCAGGGCUCAACACAGCGUGGCAAAGUGGCUGUGGCUAGAUUGCC was 0; that for AGCGGAGCACAACACAGAGUGGCAAAGUGGCUGUGGCUAGAUUGCC was 0.61; that for AGCCGAGCUCAACACAGCGUGGCAAAGUGGCUGAGGCUAGACUGCC was 0.03.
The same measure for AGCAGGGCUCCACACAGCGUGGCAAAGUGGCUGUGGCUAGACUGCC: 0.02; for AGCUGAGCUCAAUGCAGCGUGGCAAAGUGGCUGUGGCUAGACUGCC: 0.11.
The same measure for AGGAGAGCUCAACACAGUGUGGCAAAGUGGCUGUGGCUAGACUGCC: 0.26; for AGCAGAGAUCAACUCAGCGUGGCAAAGAGGCUGUGGCUAGACUUCC: 0.23.
As to AGAAGAGCUCAACACAGCGUGGCAAAGUGGCCGUGGCGAGACUGCC, the self-cleavage was 0.41.
As to AGCAGAGCUCAGCACAGCGUGGCUAAGUGGCUGUGGCUAAACUGCU, the self-cleavage was determined as 0.04.
The same measure for AGCAGAGCUCAACCCAGCGUGGCAAAGUCGCUGUGAUUAGACUGCC: 0.06; for AGCAGAGUUCAACUCAGCGUGGCAAAGUGGCUGUGGCUAGACCGCC: 0.03.
The value for AGGAGAGCUCAACACAGCGUAGCUAAGUGGCUGUGGCUGGACUGCC was 0.42; that for AGCAGAGCUAAACACAGCGUGGCAAAGUGGCUGUGGUUAGACUGCC was 0.05.
The same measure for AGCAGAGCUAAACACUGCGUUUCAAAGUGGCUGUGGCUAGACUGCC: 0.14.
As for AGCAGAGCUCAUCACAGCGUGUCAAAGUGGGUGUGGCUAGAGUGCC, the self-cleavage is 0.04.
With AGCAGAGCUCAGCACUGCGUGACAAAGUGGCUGUGGCUAGUCUGUC, the self-cleavage is 0.02.
The value for AGCGGAGCUCAACUCAGCAUGGCAAAGUGGCUGUGGCAAGACUGCC was 0.1; that for AGCAGAGCUGAACACAGCGUGCCAAAGUGGCUGUGGCUAGAGUGCG was 0.01; that for AGCAGAGCUGAACACAGCGUGGCAAAGUGGCUGUGGCUAGCCUGCC was 0.03.
The value for AGAAGUGCUCUCCACAGCGUGGCAAAGUGGCUGUGGCUAGACUGCC was 0.09; that for AGAAGAGCUAAACACAGCGUGGCAAAGUGGCUGUGGUUAGACUGCC was 0.78.
The value for AGCAGAGGACAACACAGCGUGGGAAAGUGGCUGUGGCUAGAAUGCC was 0.18; that for AGCAGAGCUCCACACUGUGUGGCAAAGUGGAUGCGGCUAGACUGCC was 0.01; that for AGUAGAGCUCAACACAGCGUGGCAAAGUGGCUGUGGCUAUACUGCC was 0.35.
For AGUAGAGCUCAACACAGCGUCGCAAAGUGGCUGUGGCUAGACUGCC, the self-cleavage was found to be 0.21.
With AGAAGGGCUCAACACAGCGUGGCAAAGUGGCUGUCGCUAGACUGCC, the self-cleavage was determined as 0.69.
Regarding AGUAGAGCUCAACAGAGCGUGGCACAGUGGCUGUGGCUAGACUUCC, the self-cleavage was 0.06.
The value for AGCAGCGCACAACACAGCGAGGCAAAGUGGCUGUGGCUGGACGGCC was 0.03.
Consider AGCAGAGCUCAACACAGCGUGGCAAAGUGGCUGUGGCUAGCCUGUC, for which the self-cleavage was determined as 0.01.
The same measure for AGCAGUGCUCAACACGGCGUGCCAAAGUGGCUGUGGCUAGACUGCC: 0.07; for AGCAGAGCUCUACACAGCGUGUCAAAGUGACUGUGGCUAGACUGCC: 0.07; for AGCAGAGCUCGACACAGCGUGGCAAAGUGGCUGUGGCUACACUGUC: 0.06.
The same measure for AGUAGAGCUCAACACAGCGUGGCAAAGUGGCUAUGUCUAGACUGCC: 0.28; for AGCAGAGCUAAACACAGCGUGGCAAAGUGGCUGUGGCUAGUCUGAC: 0.01; for AGCAGAGCUAACCACAGCGUGGCAAAGUGCCUGUGGCUAGACUGCC: 0.01.
The value for AGCAGUGCUCGACACAGCGUGGCAAAGGGGCUGUGGCUAGACUGCC was 0.05; that for AGCAGAGCUCAACACUGCGUGUCAAAGUGGCUGUGGCUAGAAUGCC was 0.05.
Turning to AGCAGAGCUGAACACAGCGUGGCAAAGUGGCUGUGGCUAGACUGCU, the self-cleavage stood at 0.68.
The same measure for AGCCGCGCGCAACACAGCGUGGCAAAGUGGCUGUGGCUAGACUGCC: 0.05.
The value for AGCAGAGCUCAACACUGCGUGGCAAAGUGGCUGUGGCUAGACUGCU was 0.08; that for AGCAGAGCUCAGCAGAGCAUGGCAAUGUGGCUGUGGCUAGACUGCC was 0.05; that for AGUAGAGCUCAACACAGCGUGGCAAAGUGGGAGUGGCUAGACUGCC was 0.13.
